PubChem BioAssay AID463173 (ICCB-Longwood Screening Facility, Harvard Medical School, 2010)
Hit rate of the full screen: of about 52,000 compounds, about 1,700 (3.3%) were called active. No stated cut-off is given here; in the data, active means survival mostly below about 52% (no sharp cut-off); inactive means mostly above about 56%. This is one part of the list.

tested on: Wild type; assay: S. aureus survival, RN4220 and DeltatarO strains – OD600, teichoic acid synthesis inhibitors, primary screen (AID 463173); conditions: S. aureus RN4220 wild type/DeltatarO growth, OD600, 18 h, stronger effect = lower value, screened at 18.75 µg/mL (by protocol)

Row | SMILES | survival
1 | CCOc1ccc(CCNC(=O)c2ccc3c(c2)N(Cc2ccc(C)cc2)CCS3)cc1 | inactive: 81%
2 | O=C(C1CCCN(S(=O)(=O)c2ccc(Br)s2)C1)N1CCN(c2ccccc2F)CC1 (stereo unspecified) | inactive: 68%
3 | Cc1ccc2[nH]c(-c3ccccc3)c(CN(C)C)c(=O)c2c1 | inactive: 110%
4 | CCOC(=O)c1cn(CC(=O)Nc2ccc(OC)cc2OC)nn1 | inactive: 88%
5 | CCN(C(=O)c1sc2nc3n(c(=O)c2c1C)CCCCC3)c1ccc(OC)cc1 | inactive: 83%
6 | COc1ccc(C)cc1NC(=O)NC(C)c1c(-n2cccc2)sc(C)c1C (stereo unspecified) | inactive: 39%
7 | CCN(CC)CCCNc1sc(S(=O)(=O)c2ccccc2)nc1S(=O)(=O)c1ccc(Cl)cc1 | inactive: 88%
8 | CCOC(=O)c1c(C)[nH]c(CCC(=O)NC(C)c2ccccc2)c1C (stereo unspecified) | inactive: 71%
9 | Cc1ccc(Cl)cc1NC(=O)Cn1c(=O)n(CCC(=O)NCc2ccc3c(c2)OCO3)c(=O)c2sccc21 | inactive: 108%
10 | COC(=O)C(NC(=O)CCc1c(C)nc2c(-c3ccccc3)c(C)nn2c1C)C(C)C (stereo unspecified) | inactive: 120%
11 | CCCC(=O)Nc1nnc(S(=O)(=O)N2CCCCCC2)s1 | inactive: 85%
12 | O=C(NCc1ccc(Cl)cc1)c1ccc(CN2CCOCC2)cc1 | inactive: 101%
13 | CC(C)Cc1ccc(S(=O)(=O)N2CCN(Cc3noc(CCC(=O)N4CCCCC4)n3)CC2)cc1 | inactive: 70%
14 | COc1ccc(C2C(C(=O)Nc3ccccc3)=C(C)Nc3nc(SCC(=O)c4ccc(C)cc4)nn32)cc1 (stereo unspecified) | inactive: 70%
15 | CC1=C(c2ccc(F)cc2)S(=O)(=O)N=C1N1CCC(C(=O)NCCc2ccccc2C)CC1 | inactive: 100%
16 | Cc1c(C(=O)Nc2ccc(-n3c(C)nc4ccccc4c3=O)cc2)cccc1[N+](=O)[O-] | inactive: 80%
17 | Cc1cc(C)nc(-n2nc(C)c3c2NC(=O)CC3c2cccc(O)c2)n1 (stereo unspecified) | inactive: 89%
18 | CCOc1cc2c(cc1OCC)C(CC(=O)O)N(C(=O)Nc1ccccc1C(F)(F)F)CC2 (stereo unspecified) | inactive: 76%
19 | NC(=O)CN1CCN(Cc2ccc3c(c2)OCO3)CC1 | inactive: 116%
20 | O=C(O)C1C2C=CC(C2)C1C(=O)NC1CCN(Cc2ccccc2)CC1 (stereo unspecified) | inactive: 113%
21 | Cc1cc2nn(-c3ccc(F)cc3)nc2cc1NC(=O)c1cccc2c(Cl)cccc12 | inactive: 71%
22 | C#CCn1c(O)c(N=NC(=O)c2ccccc2-n2cccc2)c2ccccc21 | inactive: 108%

Row | SMILES | survival
23 | CCOC(=O)c1ccc2c(c1)N(Cc1ccc(F)cc1Cl)C(=O)c1ccccc1S2(=O)=O | inactive: 138%
24 | CCn1c(C)c(C)c2cc(C(=O)NCc3ccc(F)cc3)ccc21 | inactive: 73%
25 | Cc1ccc2[nH]c(=O)c(CN(Cc3ccccc3)C(=O)c3ccco3)cc2c1 | inactive: 106%
26 | COc1ccc(-n2cc(-c3ccccc3)c3c(Nc4ccc(OC)c(OC)c4)ncnc32)cc1 | inactive: 143%
27 | Cc1cccc(C)c1NCc1nnc(SCC#N)n1-c1ccccc1 | inactive: 108%
28 | COc1cc(OC)c(NC(=O)Nc2cccc(OCc3cc(=O)n4ccccc4n3)c2)cc1Cl | inactive: 87%
29 | CCC(=O)N1CCc2cc(Br)cc(S(=O)(=O)N3CCN(c4ccccc4OC)CC3)c21 | inactive: 72%
30 | CCOC(=O)CC(=O)CSc1nc2ccsc2c(=O)n1Cc1ccccc1 | inactive: 133%
31 | Cc1noc(-c2ccc(NC(C)c3ccccc3)c([N+](=O)[O-])c2)n1 (stereo unspecified) | inactive: 87%
32 | Cc1ccc(CNC(=O)c2nc(SCc3ccccc3C)ncc2Cl)cc1 | inactive: 91%
33 | CC1(c2ccccc2)CC(C)(C)N(C(=O)c2cccc(Cl)c2)c2ccccc21 (stereo unspecified) | active: 6%
34 | COc1ccccc1NC(=O)c1ccc(CN2C(=O)C(C)=C(c3ccc(C)c(C)c3)S2(=O)=O)cc1 | inactive: 84%
35 | Cc1cccc(N2C(=O)NC(=O)/C(=C\c3cn(CC(=O)NCc4ccco4)c4ccccc34)C2=O)c1 | inactive: 117%
36 | c1ccc2c(c1)COC(CCN1CCN(CCC3OCc4ccccc4CO3)CC1)OC2 | inactive: 94%
37 | Cc1ccc(CNC(=O)c2ccc(CSCc3cccc(C)c3)o2)cc1 | inactive: 78%
38 | Cc1ccc(CCNS(=O)(=O)c2c(C)nc3sc(C)c(C)n3c2=O)cc1 | inactive: 86%
39 | COc1cccc(-c2nnc(-c3ccccc3NC(=O)c3ccc(F)cc3F)o2)c1 | inactive: 72%
40 | Cc1ccc(C)c(OCCn2c(CCNC(=O)C3CCCCC3)nc3ccccc32)c1 | inactive: 104%
41 | Cc1cc(C)cc(-n2c(SCC(=O)N3CCOCC3)nc3c([nH]c4ccccc43)c2=O)c1 | inactive: 133%
42 | O=C1C(=O)N(C2CCN(C(=O)c3ccccc3Cl)CC2)CCN1Cc1ccc(F)cc1 | inactive: 60%
43 | CC1S/C(=N\NC(=O)CNc2cccc(Cl)c2)N(c2ccccc2)C1=O (stereo unspecified) | inactive: 119%
44 | Cc1ccc(NS(=O)(=O)c2ccc3[nH]c4c(c3c2)CCCC4)cc1N(C)C | inactive: 81%

Row | SMILES | survival
45 | Cc1nc2ccn(Cc3cccs3)c(=O)c2cc1C(=O)N1CCN(c2ccccc2F)CC1 | inactive: 65%
46 | CC1CCN(S(=O)(=O)c2ccc3c(c2)N(CC(=O)NCCc2ccccc2)C(=O)CO3)CC1 | inactive: 94%
47 | COc1cccc(NC(=O)c2ccc3c(c2)CCN3S(C)(=O)=O)c1 | inactive: 81%
48 | COc1ccc(C2=CC(c3ccccc3Cl)n3nc(-c4ccc(Cl)cc4)nc3N2)cc1 (stereo unspecified) | inactive: 81%
49 | COc1ccccc1CNC(=O)CCS(=O)(=O)c1ccc2c(c1)CCN2C(C)=O | inactive: 65%
50 | Cc1nc2nc(NCc3ccc(Cl)cc3)[nH]n2c(=O)c1Cc1ccccc1 | inactive: 61%
51 | Cc1ccc(Cl)cc1N1CCN(C(=O)Cn2cnc3sc(C)c(S(=O)(=O)N4CCC(C)CC4)c3c2=O)CC1 | inactive: 81%
52 | COC(=O)c1scc(-c2ccc(C)cc2)c1S(=O)(=O)N1CCN(c2ccc(C(C)=O)cc2)CC1 | inactive: 98%
53 | CC1CCc2c(sc(NC(=O)C3c4ccccc4Oc4ccccc43)c2C#N)C1 (stereo unspecified) | inactive: 80%
54 | Cc1ccc(-n2c(=O)c3c(C)c(C)sc3n(CC(=O)NCc3ccccc3)c2=O)cc1C | inactive: 93%
55 | CCCn1c(CCC(=O)Nc2ccc(OCC)cc2)nc2cccnc21 | inactive: 83%
56 | COc1ccc2nc(SCC(=O)Nc3ccc(N4CCCC4)cc3)c(C#N)cc2c1 | inactive: 104%
57 | CCOC(=O)c1c(C)oc2nc(C)nc(NCc3ccc(F)cc3)c12 | inactive: 69%
58 | COc1ccc(C(=O)Nc2nnc(SCc3cc(=O)c4cc(C)cc(C)c4[nH]3)s2)cc1 | inactive: 78%
59 | CCOc1ccc(CCNC(=O)CCCn2c(=O)c3cccn3c3ccccc32)cc1 | inactive: 67%
60 | C=CCNC(=O)C1CC(=O)N(c2ccc(OCC(=O)Nc3ccc(F)c(Cl)c3)cc2)C1 (stereo unspecified) | inactive: 111%
61 | Cc1ccc(CNC(=O)CCCn2c(=O)c3ccccc3n(CC(=O)Nc3ccc(C)c(C)c3)c2=O)cc1 | inactive: 80%
62 | Cc1ccc(Cl)cc1NC(=O)C(C)n1nc(-c2ccccc2)ccc1=O (stereo unspecified) | inactive: 41%
63 | COC(=O)NCC(c1cccnc1)N1CCN(c2ccc(F)cc2)CC1 (stereo unspecified) | inactive: 83%
64 | Cc1ccc(-n2ncc3c(NCCC4=CCCCC4)ncnc32)cc1 | active: -3%
65 | CC(C)OC(=O)CC12CN(C)CC(CC(=O)OC(C)C)(CN(C)C1)C2=O | inactive: 114%
66 | Cn1c(=O)c2c(nc(SCC(=O)Nc3ccccc3F)n2Cc2ccc(Cl)cc2)n(C)c1=O | inactive: 88%

Row | SMILES | survival
67 | CCc1ccccc1NC(=O)CCNS(=O)(=O)c1ccc2c(c1)CCN2C(=O)C1CC1 | inactive: 73%
68 | COc1ccccc1N1CCN(S(=O)(=O)c2c(C)sc3ncn(CC(=O)N(C)c4ccc(Cl)cc4)c(=O)c23)CC1 | inactive: 72%
69 | CCNC(=O)c1c(NC(=O)Cc2coc3cc(C)cc(C)c23)sc2c1CCCC2 | inactive: 95%
70 | O=C1CCCN1c1ccc(S(=O)(=O)N2CCCCC2)cc1 | inactive: 106%
71 | Oc1c(C(c2ccccc2F)N2CCN(Cc3ccccc3)CC2)sc2nc(-c3ccco3)nn12 (stereo unspecified) | inactive: 113%
72 | Cc1c(C(=O)N2CCC(c3nc4ccccc4s3)CC2)oc2ccc(Cl)cc12 | inactive: 66%
73 | Cc1ccc(-n2ncc3c(Nc4cccc(C)c4C)ncnc32)cc1 | inactive: 78%
74 | CCOc1ccccc1N(C)C(=O)C1CCCN(c2ncnc3c2nc2n3CCCCC2)C1 (stereo unspecified) | inactive: 72%
75 | Cc1cc(C)c2c(=O)nc(SCc3ccccc3C)n(C3CC3)c2n1 | inactive: 97%
76 | Cc1ccc(NC(=O)c2cc(-c3ccc(Br)s3)nc3ccccc23)cc1F | inactive: 86%
77 | C=CCn1c(C)c(C=C(C#N)C#N)c2ccccc21 | inactive: 104%
78 | Cc1ccc2c(CC(=O)Nc3ccc(S(=O)(=O)N4CCCCC4)cc3)coc2c1 | inactive: 68%
79 | Cc1ccc(Cl)cc1NC(=O)Cn1c(=O)oc2cc(S(=O)(=O)N3CCCC3)ccc21 | inactive: 98%
80 | CCC1=[N+](CC(=O)c2ccccc2)CCn2cccc21 | inactive: 80%
81 | COc1ccc(C(=O)OC2=C(C(=O)c3ccccc3)N(C)S(=O)(=O)c3ccccc32)cc1OC | inactive: 132%
82 | COCCn1c(=NC(=O)c2ccc3c(c2)OCCO3)sc2cc(C(=O)OC)ccc21 | inactive: 68%
83 | COc1ccccc1N1CCN(CCCNC(=O)c2cnn(-c3cccc(Cl)c3)c2C2CCN(C(=O)OC(C)(C)C)CC2)CC1 | inactive: 85%
84 | Cc1ccc(CN2C(=O)C3(c4ccccc42)N(c2cccc(F)c2)C(=O)CS3(=O)=O)cc1 (stereo unspecified) | inactive: 71%
85 | CCOc1ccc(CNC(=O)Cn2cc3c(n2)-c2c(oc(C(=O)N4CCOCC4)c2C)CC3)cc1 | inactive: 87%
86 | COc1cc(NC(=O)NC(C)c2c(-n3cccc3)sc3c2CCCC3)cc(OC)c1OC (stereo unspecified) | inactive: 72%
